The whole screen tested about 310,000 compounds, of which about 14,000 (4.5%) showed an effect of 50% or more. Effects have a minus sign here. The list shows a part of the results.
Each compound was assayed against human ether-à-go-go-related gene (hERG) potassium channel (human, UniProt Q12809) (assay: primary screen, population patch clamp on CHO cells stably expressing hERG).
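Note: peak tail current of the secondary pulse compared with the same well before compound.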

Chain of human ether-à-go-go-related gene (hERG) potassium channel (Q12809 whole entry, looked up): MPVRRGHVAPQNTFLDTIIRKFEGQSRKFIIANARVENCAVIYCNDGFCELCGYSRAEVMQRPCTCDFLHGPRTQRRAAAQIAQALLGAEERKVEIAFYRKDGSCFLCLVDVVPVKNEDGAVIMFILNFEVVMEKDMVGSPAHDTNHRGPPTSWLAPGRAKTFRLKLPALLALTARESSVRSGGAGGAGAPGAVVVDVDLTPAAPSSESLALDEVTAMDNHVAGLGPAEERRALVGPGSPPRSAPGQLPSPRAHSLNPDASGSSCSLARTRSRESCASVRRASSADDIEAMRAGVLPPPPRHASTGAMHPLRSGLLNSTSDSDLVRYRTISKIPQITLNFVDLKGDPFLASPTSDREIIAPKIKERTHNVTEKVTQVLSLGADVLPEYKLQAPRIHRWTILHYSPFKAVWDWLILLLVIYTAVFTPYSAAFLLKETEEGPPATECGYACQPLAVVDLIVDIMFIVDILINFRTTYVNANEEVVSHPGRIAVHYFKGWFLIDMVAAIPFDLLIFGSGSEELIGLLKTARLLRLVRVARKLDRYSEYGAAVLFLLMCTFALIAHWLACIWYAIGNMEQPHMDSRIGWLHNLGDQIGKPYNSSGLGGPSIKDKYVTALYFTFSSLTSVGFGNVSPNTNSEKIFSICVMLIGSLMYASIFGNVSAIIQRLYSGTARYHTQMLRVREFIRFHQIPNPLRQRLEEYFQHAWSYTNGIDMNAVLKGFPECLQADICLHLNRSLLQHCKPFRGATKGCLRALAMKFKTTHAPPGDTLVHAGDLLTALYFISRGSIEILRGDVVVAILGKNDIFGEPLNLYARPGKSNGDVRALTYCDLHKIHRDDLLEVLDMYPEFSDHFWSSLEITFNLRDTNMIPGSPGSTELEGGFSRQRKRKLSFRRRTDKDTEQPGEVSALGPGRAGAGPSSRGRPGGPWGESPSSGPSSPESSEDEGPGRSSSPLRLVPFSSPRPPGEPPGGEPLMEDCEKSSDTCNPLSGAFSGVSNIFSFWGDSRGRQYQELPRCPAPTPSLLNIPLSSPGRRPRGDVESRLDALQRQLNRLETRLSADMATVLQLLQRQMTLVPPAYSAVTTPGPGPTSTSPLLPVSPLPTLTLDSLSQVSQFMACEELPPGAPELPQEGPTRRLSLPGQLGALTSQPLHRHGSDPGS

Row | Compound | hERG current change (%, negative = inhibition) at 10uM [%]
1 | Cc1ccc(OCCCC(=O)NC2CCCCC2)cc1 | 7.17
2 | O=C(O)CC(NC(=O)c1cccc([N+](=O)[O-])c1)c1ccc2c(c1)OCO2 (stereo not shown) | 18.1
3 | CCCCCCCCNC(=O)CC(NS(=O)(=O)c1ccc(NC(C)=O)cc1)C(C)C (stereo not shown) | 5.32
4 | CC1CCC(=NNC(=O)Cc2cccn2C)CC1 (stereo not shown) | 3.51
5 | Nc1c(S(=O)(=O)c2cc(Cl)ccc2Cl)c2nc3ccccc3nc2n1CCN1CCOCC1 | -15.3
6 | CCOc1ccc(CCNS(=O)(=O)c2c(C)n[nH]c2C)cc1OCC | 3.92
7 | COc1ccc(NC(=O)C2CCN(C(=O)Cc3ccccc3)CC2)cc1OC | 17.1
8 | CC1CCCN(CCCNC(=O)c2cn(C)c3ccc(S(=O)(=O)N(C)C4CCCCC4)cc3c2=O)C1 (stereo not shown) | -71.4
9 | C#CC(C)(C)NC(=O)CSc1nc2c(c(=O)n(C)c(=O)n2C)n1CCCC | -9.58
10 | Cc1cccc(NC(=O)c2cc(S(=O)(=O)N3CCc4ccccc43)cn2C)c1C | 6.95
11 | Cc1nc2sc(C(c3cccs3)N3CCC(C(N)=O)CC3)c(O)n2n1 (stereo not shown) | 22.1
12 | CN(Cc1ccccc1)C(=O)N[C@@H](Cc1ccccc1)C(=O)O | -1.29
13 | CCC(=O)N1CCc2cc(S(=O)(=O)CCC(=O)Nc3ccc(C(C)=O)cc3)ccc21 | -16.5
14 | COc1ccc(S(=O)(=O)N2CCOC23CCN(S(=O)(=O)c2ccc([N+](=O)[O-])cc2)CC3)cc1 | -62
15 | CCn1cc(C(=O)OCC(=O)Nc2c(C)cccc2C)c(=O)c2ccc(C)nc21 | 18.2
16 | CCOC(=O)c1sc(NC(=O)c2ccccc2F)c(C(N)=O)c1C | 6.79
17 | COc1ccc(-c2cc(=O)c3c(O)cc(O[C@@H]4O[C@H](CO[C@@H]5O[C@@H](C)[C@H](O)[C@@H](O)[C@H]5O)[C@@H](O)[C@H](O)[C@H]4O)cc3o2)cc1O | 28.4
18 | O=C(CSc1nnc(-c2ccc(O)cc2)o1)Nc1ccccc1 | -15.6
19 | O=c1cc(C(F)(F)F)nc(SCc2cccnc2)[nH]1 | 16.9
20 | CC1=C(C)CC(C(=O)NCc2ccc3c(c2)OCO3)C(C(=O)O)C1 (stereo not shown) | 5.59
21 | CC1=NC(C)Cc2ccccc21.Cl (stereo not shown) | 25.5
22 | CC(NC(=O)COC(=O)CCc1nc(=O)c2ccccc2n1C)c1ccccc1 (stereo not shown) | 18.7

Row | Compound | hERG current change (%, negative = inhibition) at 10uM [%]
23 | C=CCNc1cc(C)oc(=O)c1C(=O)CCC | -1.54
24 | CCOc1ccc(N2C(=O)CC(NC3CCN(C(=O)c4ccc(F)cc4)CC3)C2=O)cc1 (stereo not shown) | -27.1
25 | CN1CCC(=O)N([C@H](CSc2ccc(Br)cc2)Cc2ccccc2)CC1 | -64.8
26 | CCCNC(=S)N1CCN(c2nc(C)nc3sc4c(c23)CCCC4)CC1 | -31.5
27 | CN(Cc1ccccc1)C(=O)c1nc[nH]c1C(=O)N(C)Cc1ccccc1 | 1.69
28 | Cc1ccc(NC(=O)CCC(=O)c2cccs2)cc1 | -1.29
29 | Cc1cc(Oc2ccc(=O)[nH]n2)nc(Cl)n1 | 5.09
30 | O=C(CNC(=S)N(CCCN1CCOCC1)Cc1cccs1)NCCCN1CCOCC1 | 15.1
31 | O=C(CSc1nnc(CNC(=O)c2c(F)cccc2F)o1)Nc1ccc2c(c1)OCO2 | 16.7
32 | Cn1c(N)c(S(=O)(=O)N2CCN(Cc3ccccc3)CC2)c(=O)n(C)c1=O | 4.53
33 | CCN(CC)CCNC(=O)C12CC3CC(CC(C3)C1)C2.Cl | -17.1
34 | CCN(CC(=O)Nc1c(F)cccc1F)C(=O)/C=C/c1ccc2ccccc2n1 | -16.4
35 | COc1ccccc1C(=O)NC(=O)COC(=O)/C(=C/c1ccccc1)NC(C)=O | -35.7
36 | Cc1ccc(CN2CCN(C3CCOCC3)CC2CCO)cc1 (stereo not shown) | -36.5
37 | O=c1c2ccccc2nnn1Cc1ccc(F)cc1 | 1.33
38 | c1ccc(-c2csc3ncn4nnnc4c23)cc1 | -20.9
39 | CC(C)(C)n1cnnc1Sc1ccc([N+](=O)[O-])cn1 | -17.8
40 | COc1cccc2c(=O)n(CC(=O)NC3CCCC3)ccc12 | 6.52
41 | Cc1cccc(NC(=O)Nc2ccc(Br)cc2)n1 | 18.4
42 | Cn1c(CNc2ccccc2)nc2ccccc21 | 4.27
43 | O=C(O)/C=C/c1ccc2c(c1)OCCO2 | -25
44 | O=c1oc2ccccc2cc1-c1nnc(-c2cccc(Br)c2)o1 | -9.78

Row | Compound | hERG current change (%, negative = inhibition) at 10uM [%]
45 | CCSc1nc(-c2ccc(OC)cc2)cc(-c2ccccc2)c1C#N | 5.37
46 | CCc1sc(C(=O)NCc2ccco2)cc1C | 10.3
47 | CCOC(=O)Cc1nnc(NC(=O)CSc2ccccc2)s1 | 7.53
48 | CC1CCN(c2nnc(N3CCC(C)CC3)c3ccccc23)CC1 | 6.92
49 | CSc1nc(N)c(C(=O)NC2CCCCC2)s1 | 13
50 | CC(=O)NCC(=O)NC1CCCc2c1cnn2-c1ccc(C(C)(C)C)cc1 (stereo not shown) | -24.4
51 | Cc1nnc(NC(=O)CSc2nnc3ncccn23)s1 | 10.7
52 | O=C1c2ccccc2C(Nc2cccnc2)N1Cc1ccccc1 (stereo not shown) | -37.7
53 | c1ccc(C2=Nc3ccccc3OC2)cc1 | 4.25
54 | O=C(Cn1c(C(F)(F)F)nc2ccccc21)NCCCN1CCOCC1 | 8.96
55 | COc1ccc([C@@H]2[C@@H]3C(=O)N(C(C)(C)C)C(=O)[C@@H]3[C@]3(Cc4ccc(Cl)cc4)C(=O)N(c4ccc(OC)cc4)C(=O)N23)cc1 | -10.2
56 | Cc1ccc2c(c1)nnn2C1CCN(S(=O)(=O)c2ccc3ccccc3c2)CC1 | -3.19
57 | COc1ccc(NCc2nnc(SCC(=O)Nc3nc(-c4ccccc4)cs3)n2-c2ccccc2)cc1 | 13
58 | O=C(CSCc1cnn(-c2ccccc2)c1-n1cccc1)NCc1cccs1 | -40.4
59 | CCOC(=O)c1c(C)[nH]c(C(=O)N/N=C/c2ccc(OC)c(OC)c2)c1C | 12.7
60 | CCOc1ccc(C2C(C(=O)c3ccc(C)o3)=C(O)C(=O)N2CCN2CCOCC2)cc1OC (stereo not shown) | 12.8
61 | NS(=O)(=O)c1ccc(CCn2c(=S)[nH]c3ccccc3c2=O)cc1 | -5.32
62 | OC(COc1ccc(CN2CCSCC2)cc1)CN1CCCCC1 (stereo not shown) | 8.52
63 | CCC(C)NC(=O)c1ccccc1-c1nc2ccccc2[nH]1 (stereo not shown) | -47.4
64 | CN(C)CCCn1c2c(c(SCC(=O)Nc3cccc4ccccc34)nc1=O)CCCC2 | -45.6
65 | N#CC1=C(N)NC(SCc2ccc(Br)cc2)=C(C#N)C12CCCCC2 | 10
66 | Cc1onc(-c2ccccc2Cl)c1C(=O)Nc1ccc2c(c1)OCO2 | 10.3

Row | Compound | hERG current change (%, negative = inhibition) at 10uM [%]
67 | Cc1nn(C(C)(C)C)c(C)c1/C=N/OC(=O)Nc1ccc(Cl)c(Cl)c1 | 1.85
68 | O=C(C1=C(O)C(=O)N(CCN2CCOCC2)C1c1cccc(Br)c1)c1cc2ccccc2o1 (stereo not shown) | 18.6
69 | Cc1[nH]c2ccccc2c1C(=O)C(C)OC(=O)c1ccc([N+](=O)[O-])o1 (stereo not shown) | -8.87
70 | Cc1ccn(C(=O)c2ccc(NC(=O)C3CCCCC3)cc2)n1 | -6.3
71 | COc1ccc(-c2nnn(CCc3nn[nH]n3)n2)cc1OC | 1.91
72 | O=C(Cn1nnc2c(cnn2-c2ccc(F)cc2)c1=O)c1ccccc1F | 5.09
73 | CCOc1ccc(N(CC(=O)N/N=C/c2cc([N+](=O)[O-])ccc2Cl)S(C)(=O)=O)cc1 | -9.53
74 | COc1cc(S(=O)(=O)N2CCC(c3nc4ccccc4s3)CC2)ccc1S(=O)(=O)N1CC(C)CC(C)C1 (stereo not shown) | 12.2
75 | Cc1cc(C(=O)COc2ccccc2C(N)=O)c(C)n1C | 4.22
76 | O=c1c2ccccc2nc(-c2cccs2)n1-c1ccc2ccccc2c1 | 2.34
77 | COc1ccc(CNC(=O)COC(=O)c2cc(-c3ccc(Cl)s3)nc3ccccc23)cc1 | 1.05
78 | Cc1ccc(Cl)cc1N(CC(=O)NC1CCCC1)C(=O)c1csnn1 | 18.4
79 | Cc1cc(C)c(S(=O)(=O)c2ccccc2C)c(Cl)n1 | -19.9
80 | O=C(Cc1ccccc1)NCc1ccncc1 | 8.49
81 | CCOC(=O)c1c(NC(=O)C2(C)Cc3ccccc3C(=O)O2)sc2c1CCCC2 (stereo not shown) | 38.7
82 | CC1CCN(C(=O)c2cc3c(ccc4ccccc43)o2)CC1 | -35.3
83 | O=C(OCC(=O)N1CCCCCC1)c1cccc(Cl)c1 | 4.77
84 | CC(CCc1ccccc1)NC(=O)c1cccnc1 (stereo not shown) | 19.5
85 | CCC(C)NC(=O)c1ccc2c(c1)S(=O)(=O)c1ccccc1C2=O (stereo not shown) | 10.1
86 | Cn1cc(CNCc2cnc3ccccn23)c(-c2ccc(Oc3ccccc3)cc2)n1 | -50
87 | C=C(C)CSc1nnc(-c2ccc(OC)cc2)n1N | -4.21
88 | CCn1c(=O)cc(SCC(=O)NCc2ccc(C)o2)c2ccccc21 | -9.75
